# The other results are listed elsewhere or left out. The energies were worked out here from pooled read counts, against the library average; single values are noisy.
# Target: T1, Pho4 (S. cerevisiae) (UniProt P07270)
# T1 sequence: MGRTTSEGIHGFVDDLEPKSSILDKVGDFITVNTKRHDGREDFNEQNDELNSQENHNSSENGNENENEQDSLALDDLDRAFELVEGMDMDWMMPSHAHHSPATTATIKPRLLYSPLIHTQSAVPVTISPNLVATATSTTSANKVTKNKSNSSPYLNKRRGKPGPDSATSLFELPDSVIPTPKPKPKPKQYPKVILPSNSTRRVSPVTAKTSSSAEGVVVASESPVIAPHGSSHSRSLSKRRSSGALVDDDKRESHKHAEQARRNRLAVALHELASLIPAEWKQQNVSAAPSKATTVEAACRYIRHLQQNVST
# Test: relative binding free energy (BET-seq); higher = weaker binding
# Settings: reference: library average
row,Sequence,relative binding free energy [kcal/mol]
1,CGGTACACGTGTCGGT,0.12
2,CGAAGCACGTGAGGGG,0.12
3,ATTGTCACGTGCTTAT,-0.01
4,GCAGGCACGTGGGAGC,-0.08
5,ATGTACACGTGTCTGG,-0.03
6,TCGAACACGTGGAGGG,0.04
7,TGATTCACGTGGGCGC,0.19
8,TGATGCACGTGATTAT,0.17
9,AGTGACACGTGTGTAA,0.02
10,GCTTGCACGTGGGGAG,-0.03
11,AGTGGCACGTGGAGTT,-0.11
12,GGCTACACGTGTTGTC,0.35
13,TAGTCCACGTGGGCGG,-0.26
14,TTATGCACGTGATCGT,0
15,TGGGGCACGTGTTACT,-0.11
16,CTTTTCACGTGCAGGG,0.23
17,ATTAGCACGTGAGGAT,0.05
18,GTGTTCACGTGAAGAT,0.45
19,GGCTGCACGTGGTGAT,-0.03
20,ATAGTCACGTGTTAAT,0.04
21,AGGAACACGTGGGGTA,-0.06
22,TATTGCACGTGGTAGC,0.05
23,GCGTACACGTGTGGTA,0.17

row,Sequence,relative binding free energy [kcal/mol]
1,TTAGGCACGTGTAACT,-0.02
2,CATATCACGTGGGGTT,-0.06
3,GTTGTCACGTGAGATT,0.38
4,CGGTTCACGTGGGTTA,0.04
5,AATTTCACGTGTGGTG,0.39
6,TATGGCACGTGTGGTC,-0.11
7,TTGGACACGTGTATGT,0.04
8,GCAAACACGTGGGGGT,-0.15
9,GGTTGCACGTGGATCA,0.04
10,ATTGGCACGTGTTGAG,-0.11
11,TGTGGCACGTGGTTCC,-0.17
12,TAGTTCACGTGTGGAC,0.21
13,GTCTTCACGTGTTGAG,0.39
14,AGCGTCACGTGGTAGG,0.1
15,GTAGTCACGTGGAAAT,0.15
16,GTTTTCACGTGTCGTC,0.29
17,TCTGGCACGTGTCAGG,-0.05
18,ATTCGCACGTGCGGTT,-0.02
19,GCAGGCACGTGACGGT,0.16
20,TCATACACGTGATTGG,0.18
21,GATATCACGTGGTTGC,0.32
22,TGTTGCACGTGTGACT,0.17
23,ATAAGCACGTGGCGGG,-0.16

row,Sequence,relative binding free energy [kcal/mol]
1,AGTTTCACGTGAGGTG,0.39
2,TACTGCACGTGGGGTT,-0.16
3,TCGGTCACGTGGAGAT,0.24
4,TGGGTCACGTGTTACG,0.13
5,ATAGGCACGTGGGGAA,-0.32
6,TTTTACACGTGGGGGG,0
7,GGTGTCACGTGAAAGA,0.33
8,TTGTTCACGTGCGCGG,0.27
9,GGTTCCACGTGGTTAG,0.02
10,TGGTTCACGTGCAGAA,0.28
11,TGTAACACGTGGGGAG,-0.05
12,GTTTTCACGTGAAGTG,0.59
13,ATGGCCACGTGTAAGT,0.01
14,GATGTCACGTGGCAGT,0.11
15,TTGCACACGTGATGGT,0.26
16,TGTATCACGTGACTAT,0.29
17,CCTTGCACGTGGAGGT,-0.08
18,CTTGTCACGTGGAGGC,0.07
19,TGGTGCACGTGGCAAG,-0.08
20,CGGTGCACGTGCCGGT,-0.18
21,TTGCGCACGTGTGTCG,-0.03
22,TGGATCACGTGTAGCT,0.12
23,CGATCCACGTGGGTGT,-0.02

row,Sequence,relative binding free energy [kcal/mol]
1,AAGGACACGTGATATG,0.1
2,AGTTGCACGTGTGTTA,0.17
3,GTTGACACGTGTATTG,0.09
4,GCGTTCACGTGTTGAG,0.18
5,AAGGGCACGTGTTGGA,0.02
6,TGATGCACGTGAGTTA,0.12
7,GCTTGCACGTGTGGCG,-0.04
8,TGGATCACGTGATAGA,0.18
9,AGCGGCACGTGTAGGA,0.17
10,TGGGGCACGTGATCAT,-0.21
11,TAGGCCACGTGGGTGC,-0.06
12,ATTGCCACGTGGGTAG,-0.27
13,GAAGACACGTGGCGGG,-0.07
14,GGGATCACGTGCGGGC,0.18
15,TGGCTCACGTGATGAG,0.28
16,TATTTCACGTGCGCGG,0.15
17,TTGATCACGTGTTTCG,0.23
18,TGTGTCACGTGATTCA,-0.07
19,GTCCGCACGTGGGGTG,-0.24
20,AAGTTCACGTGGTGTC,0.1
21,TTTCGCACGTGTAATT,0.11
22,AGAATCACGTGTTCTG,0.16
23,TTAGTCACGTGAGTAC,0.24

row,Sequence,relative binding free energy [kcal/mol]
1,TTAGGCACGTGTCTTA,-0.13
2,GTTGGCACGTGGGCGC,-0.14
3,ATGCTCACGTGTTGAA,0.25
4,CTGCTCACGTGTAGTG,0.27
5,GGCTTCACGTGGGATG,0.22
6,TGTTACACGTGGTACG,0.01
7,GTGCTCACGTGGCGGG,0.12
8,TAGTTCACGTGATGCA,0.35
9,TGGTACACGTGAAGTT,0.35
10,TCAGGCACGTGGTCGT,-0.09
11,GAAGCCACGTGGTTGT,-0.06
12,ATTGCCACGTGTTTTA,-0.16
13,GCCTTCACGTGTAGGT,0.15
14,TGGCTCACGTGACGGG,0.11
15,TAGTTCACGTGCGGGG,0.33
16,TGCTTCACGTGTGCGT,0.14
17,GAAAACACGTGGTTTT,0.11
18,GGGGTCACGTGGTGAT,0.21
19,ACGAACACGTGTGGTG,-0.02
20,TGCGGCACGTGGGATC,-0.15
21,AGTTTCACGTGAGGCA,0.38
22,GCGGGCACGTGGTCGT,-0.31
23,GATGGCACGTGGGGGG,-0.19
